# Results: the supplement of paper PMC8728848
# Some of the results follow.
# Experiments:
# Assay in all cases: glycan array binding signal (z-score within array); higher = stronger binding
# Details in all cases: glycan notation: IUPAC condensed, linker removed
# [1] = target: Fuc(a1-2)[GalNAc(b1-3)]Gal
# Procedure, shortened: (§1)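 The binding signal is a Z-score computed within each array and averaged over linkers. Arrays of the same protein sequence at different concentrations or buffers were also averaged together. Data originate from 3228 arrays in the Consortium for Functional Glycomics database, kept only where the protein sequence was available.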
# [2] = target: Fuc(a1-3)GlcNAc
# Procedure, shortened: as §1
# [3] = target: Fuc(a1-3)[Gal(b1-4)]Glc6S
# Procedure, shortened: as §1
# [4] = target: Fuc(a1-3)[Gal(b1-4)]GlcNAc
# Procedure, shortened: as §1
# [5] = target: Fuc(a1-3)[Gal(b1-4)]GlcNAc(b1-2)Man
# Procedure, shortened: as §1
# [6] = target: Fuc(a1-3)[Gal(b1-4)]GlcNAc(b1-2)Man(a1-3)[Fuc(a1-3)[Gal(b1-4)]GlcNAc(b1-2)Man(a1-6)]Man(b1-4)GlcNAc(b1-4)GlcNAc
# Procedure, shortened: as §1
# [7] = target: Fuc(a1-3)[Gal(b1-4)]GlcNAc(b1-2)Man(a1-3)[Fuc(a1-3)[Gal(b1-4)]GlcNAc(b1-2)Man(a1-6)]Man(b1-4)GlcNAc(b1-4)[Fuc(a1-6)]GlcNAc
# Procedure, shortened: as §1
# [8] = target: Fuc(a1-3)[Gal(b1-4)]GlcNAc(b1-3)Gal(b1-3)[Fuc(a1-4)]GlcNAc
# Procedure, shortened: as §1
# [9] = target: Fuc(a1-3)[Gal(b1-4)]GlcNAc(b1-3)Gal(b1-4)[Fuc(a1-3)]GlcNAc
# Procedure, shortened: as §1
# [10] = target: Fuc(a1-3)[Gal(b1-4)]GlcNAc(b1-3)Gal(b1-4)[Fuc(a1-3)]GlcNAc(b1-3)Gal(b1-4)[Fuc(a1-3)]GlcNAc
# Procedure, shortened: as §1
# [11] = target: Fuc(a1-3)[Gal(b1-4)]GlcNAc(b1-3)GalNAc
# Procedure, shortened: as §1
# [12] = target: Fuc(a1-3)[Gal(b1-4)]GlcNAc(b1-6)GalNAc
# Procedure, shortened: as §1
# [13] = target: Fuc(a1-3)[Gal(b1-4)]GlcNAc(b1-6)[Gal(b1-3)GlcNAc(b1-3)]Gal(b1-4)Glc
# Procedure, shortened: as §1
# [14] = target: Fuc(a1-3)[Gal(b1-4)]GlcNAc6S
# Procedure, shortened: as §1
# [15] = target: Fuc(a1-3)[Gal3S(b1-4)]Glc
# Procedure, shortened: as §1
# [16] = target: Fuc(a1-3)[Gal3S(b1-4)]GlcNAc
# Procedure, shortened: as §1
# [17] = target: Fuc(a1-3)[Gal3S(b1-4)]GlcNAc6S
# Procedure, shortened: as §1
# [18] = target: Fuc(a1-3)[GalNAc(b1-4)]GlcNAc
# Procedure, shortened: as §1
# [19] = target: Fuc(a1-3)[GalNAc(b1-4)]GlcNAc6S
# Procedure, shortened: as §1
# [20] = target: Fuc(a1-4)GlcNAc
# Procedure, shortened: as §1
# [21] = target: Fuc(b1-3)GlcNAc
# Procedure, shortened: as §1
# [22] = target: Gal(a1-2)Gal
# Procedure, shortened: as §1
# [23] = target: Gal(a1-3)Gal
# Procedure, shortened: as §1
# [24] = target: Gal(a1-3)Gal(b1-3)GlcNAc
# Procedure, shortened: as §1
# [25] = target: Gal(a1-3)Gal(b1-3)GlcNAc(b1-2)Man
# Procedure, shortened: as §1
# [26] = target: Gal(a1-3)Gal(b1-3)GlcNAc(b1-2)Man(a1-3)[Gal(a1-3)Gal(b1-3)GlcNAc(b1-2)Man(a1-6)]Man(b1-4)GlcNAc(b1-4)GlcNAc
# Procedure, shortened: as §1
# [27] = target: Gal(a1-3)Gal(b1-3)GlcNAc(b1-3)GalNAc
# Procedure, shortened: as §1
# [28] = target: Gal(a1-3)Gal(b1-3)GlcNAc(b1-6)GalNAc
# Procedure, shortened: as §1
# [29] = target: Gal(a1-3)Gal(b1-3)[Fuc(a1-4)]GlcNAc(b1-2)Man(a1-3)[Gal(a1-3)Gal(b1-3)[Fuc(a1-4)]GlcNAc(b1-2)Man(a1-6)]Man(b1-4)GlcNAc(b1-4)GlcNAc
# Procedure, shortened: as §1
# [30] = target: Gal(a1-3)Gal(b1-4)Glc
# Procedure, shortened: as §1
# [31] = target: Gal(a1-3)Gal(b1-4)GlcNAc
# Procedure, shortened: as §1
# [32] = target: Gal(a1-3)Gal(b1-4)GlcNAc(b1-2)Man
# Procedure, shortened: as §1
# [33] = target: Gal(a1-3)Gal(b1-4)GlcNAc(b1-2)Man(a1-3)[Gal(a1-3)Gal(b1-4)GlcNAc(b1-2)Man(a1-6)]Man(b1-4)GlcNAc(b1-4)GlcNAc
# Procedure, shortened: as §1
# [34] = target: Gal(a1-3)Gal(b1-4)GlcNAc(b1-3)GalNAc
# Procedure, shortened: as §1
# [35] = target: Gal(a1-3)Gal(b1-4)GlcNAc(b1-6)GalNAc
# Procedure, shortened: as §1
# [36] = target: Gal(a1-3)Gal(b1-4)[Fuc(a1-3)]GlcNAc
# Procedure, shortened: as §1
# [37] = target: Gal(a1-3)Gal(b1-4)[Fuc(a1-3)]GlcNAc(b1-2)Man(a1-3)[Gal(a1-3)Gal(b1-4)[Fuc(a1-3)]GlcNAc(b1-2)Man(a1-6)]Man(b1-4)GlcNAc(b1-4)GlcNAc
# Procedure, shortened: as §1
# [38] = target: Gal(a1-3)GalNAc
# Procedure, shortened: as §1
# [39] = target: Gal(a1-3)[Gal(a1-4)]Gal(b1-4)GlcNAc
# Procedure, shortened: as §1
# [40] = target: Gal(a1-4)Gal(b1-3)GlcNAc(b1-2)Man(a1-3)[Gal(a1-4)Gal(b1-3)GlcNAc(b1-2)Man(a1-6)]Man(b1-4)GlcNAc(b1-4)GlcNAc
# Procedure, shortened: as §1
# [41] = target: Gal(a1-4)Gal(b1-4)Glc
# Procedure, shortened: as §1
# [42] = target: Gal(a1-4)Gal(b1-4)GlcNAc
# Procedure, shortened: as §1
# [43] = target: Gal(a1-4)Gal(b1-4)GlcNAc(b1-2)Man(a1-3)[Gal(a1-4)Gal(b1-4)GlcNAc(b1-2)Man(a1-6)]Man(b1-4)GlcNAc(b1-4)GlcNAc
# Procedure, shortened: as §1
# [44] = target: Gal(a1-4)Gal(b1-4)GlcNAc(b1-3)Gal(b1-4)Glc
# Procedure, shortened: as §1
# [45] = target: Gal(a1-4)GlcNAc
# Procedure, shortened: as §1
binder,measurement,setting,value
CTAEGIKKFEGDGYELFKDNFPAGEKFDNDDTNDQFYTVIF [MUB40 (Lactobacillus reuteri)],glycan array binding signal (z-score),[1],-0.495
same,glycan array binding signal (z-score),[2],-0.047
same,glycan array binding signal (z-score),[3],-0.276
same,glycan array binding signal (z-score),[4],0.464
same,glycan array binding signal (z-score),[5],-0.012
same,glycan array binding signal (z-score),[6],-0.142
same,glycan array binding signal (z-score),[7],0.941
same,glycan array binding signal (z-score),[8],-0.415
same,glycan array binding signal (z-score),[9],0.612
same,glycan array binding signal (z-score),[10],0.405
same,glycan array binding signal (z-score),[11],0.991
same,glycan array binding signal (z-score),[12],0.014
same,glycan array binding signal (z-score),[13],0.066
same,glycan array binding signal (z-score),[14],0.29
same,glycan array binding signal (z-score),[15],-0.321
same,glycan array binding signal (z-score),[16],0.736
same,glycan array binding signal (z-score),[17],0.388
same,glycan array binding signal (z-score),[18],-0.365
same,glycan array binding signal (z-score),[19],-0.398
same,glycan array binding signal (z-score),[20],-0.355
same,glycan array binding signal (z-score),[21],-0.107
same,glycan array binding signal (z-score),[22],-0.435
same,glycan array binding signal (z-score),[23],-0.652
same,glycan array binding signal (z-score),[24],-0.301
same,glycan array binding signal (z-score),[25],-0.288
same,glycan array binding signal (z-score),[26],0.736
same,glycan array binding signal (z-score),[27],-0.095
same,glycan array binding signal (z-score),[28],-0.555
same,glycan array binding signal (z-score),[29],-0.01
same,glycan array binding signal (z-score),[30],-0.439
same,glycan array binding signal (z-score),[31],-0.379
same,glycan array binding signal (z-score),[32],-0.132
same,glycan array binding signal (z-score),[33],-0.317
same,glycan array binding signal (z-score),[34],0.632
same,glycan array binding signal (z-score),[35],-0.053
same,glycan array binding signal (z-score),[36],0.133
same,glycan array binding signal (z-score),[37],0.495
same,glycan array binding signal (z-score),[38],-0.413
same,glycan array binding signal (z-score),[39],0.029
same,glycan array binding signal (z-score),[40],0.84
same,glycan array binding signal (z-score),[41],-0.569
same,glycan array binding signal (z-score),[42],-0.359
same,glycan array binding signal (z-score),[43],-0.149
same,glycan array binding signal (z-score),[44],-0.561
same,glycan array binding signal (z-score),[45],-0.373
